The record followed here is PubChem BioAssay AID1963576 (National Center for Advancing Translational Sciences (NCATS), 2024).

Hit rate of the full screen: of about 46,000 compounds, about 60 (0.1%) were called active. About 3% were inconclusive and are not listed. Calls come from the whole dose curve; as a rule, active = well fitted inhibition curve with a large enough effect; inconclusive = small, poorly fitted or top-dose-only effect; inactive = no such curve, though single readings can be large or run the other way. This is one part of the list.
Potency is the fitted concentration of half-maximal effect.

The test is described as follows: Primary qHTS assay for Inhibitors of ovarian cancer metastasis using an organotypic tumor microenvironment (TME) model.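 For Potency: count of GFP cancer cells still attached after washing and fixation.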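 For activity change, negative = inhibition: plate controls were DMSO wells for no effect and tomatine positive control wells for full effect.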 Note: nearly all actives have a fitted effect of over 65% in size. Particulars: SKOV3ip1-GFP adhesion/invasion on 3D omental model, fluorescence; series mostly up to 45.8 µM; activity change, negative = inhibition: at the top concentration. The gist of the method:
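Adhesion/invasion was scored as fixed GFP-labeled SKOV3ip1 cell counts (488/509 nm), normalized to DMSO and tomatine controls. Cancer cells in serum-free medium, with four compound doses (0.36-46 umol/L), sat 2 hr at RT then 16 hr at 37 C on a 48 hr fibroblast/mesothelial/ECM culture.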
In the case of `O=C(Nc1ccc(OC(F)(F)F)cc1)C1CCN(S(=O)(=O)c2ccc3[nH]c(=O)ccc3c2)CC1`, the result was inactive.
For `Cc1ccc(Nc2cc(C)nc(-n3nc(C)cc3C)n2)cc1`, the compound was called inactive.
Take `O=C(NC1CCCCC1)c1ccc2c(c1)sc1nc(-c3ccc(F)cc3)cn12`: the “activity change, negative = inhibition” value is inactive: -16.3%.
Take `O=C(NC1CCCCC1)c1ccc2c(c1)N(Cc1cccc(F)c1)C(=O)c1ccccc1S2`: the result was inactive.
For the compound `CCOc1ccc(CNC(=O)c2ccc3c(c2)sc2nc(-c4ccccc4)cn23)cc1`, the “activity change, negative = inhibition” value was inactive: 2.15%.
On the same count and under the same terms, next, `Cn1cnc(S(=O)(=O)N2CCC(C(=O)Nc3ccc(F)cc3F)CC2)c1`: inactive: 0.0512%; `CCOCCc1nnc(NC(=O)C(=O)c2cc(C)n(-c3cccc(C)c3)c2C)s1`: inactive: -2.91%.
Still for that read-out and setting: the same measure for `Cc1ccc(-c2noc(CNC(=O)COc3cc(C)c(Br)c(C)c3)n2)cc1`: inactive: -26.4%.
In the case of `COc1ccc2nc(NC(=O)c3nc(S(=O)(=O)Cc4ccccc4F)ncc3Cl)sc2c1`, the Potency is active: 7.08 µM.
For the compound `Cc1ccc(-n2nc(C(=O)N3CCN(c4ccc(F)cc4)CC3)c(=O)n(C)c2=O)cc1`, the “activity change, negative = inhibition” value was inactive: 13.6%.
`CCc1cccc(NC(=O)Cn2c(=O)n(-c3ccccc3C)c(=O)c3c2c2cc(C)ccc2n3C)c1`: the result was inactive.
As for `COc1cc(OC)c(NC(=O)Cn2c(=O)c(C(F)(F)F)nc3ccccc32)cc1Cl`, the “activity change, negative = inhibition” value was inactive: 87.7%.
The same measure, in the same setting: next, `Cc1ccc(Cl)cc1-n1c(CCC(=O)O)ccc1-c1cccs1`: inactive: 3.29%.
In the case of `Clc1ccccc1N1CCN(Cc2nnc(-c3ccccc3)o2)CC1`, the call was inactive.
For `O=C(Cn1c(=O)n(-c2ccccc2)c(=O)c2ccc(C(=O)NCc3ccc4c(c3)OCO4)cc21)Nc1ccc(F)cc1`, the “activity change, negative = inhibition” value was inactive: -3.82%.
Consider `COC(=O)c1ccc(CSc2nc3c([nH]c4ccccc43)c(=O)n2-c2ccc(F)cc2)o1`, for which the outcome was inactive.
Turning to `COc1ccc(NCc2cc3cc4c(cc3n(CC(=O)Nc3cccc(F)c3)c2=O)OCO4)cc1`, the compound was called inactive.
On the same count and under the same terms, the same measure for `CCOc1ccccc1C(=O)Oc1c(S(=O)(=O)c2ccc(C)cc2)c(C)nn1-c1ccccc1`: “inactive”; for `Cc1cccc(N2CCN(S(=O)(=O)c3cn(C)c(C)n3)CC2)c1C`: “inactive”.
As for `CCCCN(C)CCCNC(=O)Cn1ncc2c3ccccc3n(Cc3cccc(Cl)c3)c2c1=O`, the “activity change, negative = inhibition” value is inactive: 20%.
For `COc1ccc(CCCc2nnc(SCC(=O)Nc3cccc(C)c3)o2)cc1C`, the “activity change, negative = inhibition” value was inactive: 9.88%.
On to `Cc1ccccc1CN1CCc2nc(N3CCN(c4ncccn4)CC3)ncc2C1`, for which the “activity change, negative = inhibition” value is inactive: 4.63%.
On the same count and under the same terms, the same measure for `CCCCc1nn2c(=O)cc(COC(=O)c3cccc(NC(=O)c4cccc(Cl)c4)c3)nc2s1`: inactive: 2.77%; for `Cc1ccc(CNC(=O)c2ccc(CS(=O)(=O)Cc3ccc(F)cc3)o2)cc1`: inactive: -0.429%.
As for `Cc1cccc(CSc2nc3c(c(=O)[nH]2)CCC3)c1`, the “activity change, negative = inhibition” value was inactive: 0.627%.
In the case of `O=C(Nc1ccc(F)cc1F)c1cccc2c1C(=O)N(C1CCCCC1)C2`, the compound was classed as inactive.
For `COc1cccc(-n2c(SCC(=O)N3CCc4ccccc43)nc3c([nH]c4ccccc43)c2=O)c1`, the “activity change, negative = inhibition” value was inactive: -27.1%.
Still for that read-out and setting: next, `COc1cc(NC(=O)CSc2nc(-c3cccs3)cc(C(F)(F)F)n2)cc(OC)c1OC`: inactive: 42.4%; `COCCNc1ccc(-c2nc(-c3ccncc3)no2)cc1[N+](=O)[O-]`: inactive: -8.2%.
As to `Cc1cc(C(=O)NOCCO)c(Nc2ccc(I)cc2F)n(C)c1=O`, the “activity change, negative = inhibition” value is inactive: 0.642%.
The same measure, in the same setting: the same measure for `COc1ccc(OC)c(S(=O)(=O)N2Cc3ccccc3CC2C(=O)Nc2ccc(C)cc2C)c1` (stereo not given): inactive: 2%; for `CCS(=O)(=O)N1CCc2cc(C(=O)N3CCN(c4ccc(OC)cc4)CC3)ccc21`: inactive: 4.5%.
Same read-out and setting: next, `CCc1cccc(C)c1NC(=O)C(CC)n1nc(C)c2c(C)n(-c3ccccc3)nc2c1=O` (stereo not given): inactive: -6.41%; `COc1ccc(S(=O)(=O)NCc2cccn2Cc2cccc(C)c2)cc1Cl`: inactive: 0.842%; `CNC(=O)c1ccc2nc(CCc3ccccc3)oc2c1`: inactive: 26.8%.
On to `CCc1ccc(C2CC(=O)c3c([nH]c(C(=O)OC4CCC(C)CC4)c3C)C2)cc1` (stereo not given), for which the “activity change, negative = inhibition” value is inactive: 2.68%.
On the same count and under the same terms, next, `O=C(Nc1noc2ccccc12)c1c(F)cccc1F`: inactive: -6.92%.
Still for that read-out and setting: next, `Cc1ccc(CNC(=O)Cn2c(=O)n(-c3ccc(C)c(F)c3)c(=O)c3sc4ccccc4c32)cc1`: inactive: -9.54%; `Cc1ccc(S(=O)(=O)N(CC(=O)N2CCc3ccccc3C2)c2ccc(C)c(C)c2)cc1`: inactive: 1.56%; `CCOc1ccc(NC(=O)CCS(=O)(=O)c2ccc(Br)s2)cc1`: inactive: -4%.
Regarding `CCN(CC)CCCNC(=O)c1nn(-c2ccc(OC)c(Cl)c2)c(=O)c2c1c1ccccc1n2C`, the “activity change, negative = inhibition” value is inactive: -4.37%.
As for `Cc1cccc(NC(=O)CN2C(=O)COc3ccc(S(=O)(=O)N4CCC(C)CC4)cc32)c1C`, the compound was called inactive.
Take `COC(=O)c1sccc1S(=O)(=O)N(CC(=O)NCc1ccccc1)c1ccc(C)c(C)c1`: the “activity change, negative = inhibition” value was inactive: -0.202%.
Same read-out and setting: the same measure for `Cn1nnnc1SCCNCc1ccc(OCc2ccccc2)cc1`: inactive: -1.89%.
With `CCOC(=O)c1c(C)c(-c2ccccc2)n(CC(=O)Nc2cccc(F)c2)c1C`, the compound was classed as inactive.
For the compound `COc1ccc(NC(=O)CSc2nnc3scc(-c4ccc(Cl)cc4)n23)cc1`, the “activity change, negative = inhibition” value is inactive: 0.397%.
The same measure, in the same setting: the same measure for `CCCC(=O)Nc1cc(C(=O)NCc2ccc(OC)cc2)ccc1S(=O)(=O)c1ccc(Cl)cc1`: inactive: 0.254%.
For `Cc1nn(CC(=O)NCc2ccccc2Cl)c(=O)c2cccn12`, the “activity change, negative = inhibition” value was inactive: 0.649%.
Regarding `CCOC(=O)C1CCN(C(=O)C2CCN(c3nnc(C)c4c(C)n(-c5ccccc5)nc34)CC2)CC1`, the result was inactive.
Turning to `CCOc1ccc(-c2nc3c(C#N)c[nH]n3c2NC2CCCCC2)cc1`, the “activity change, negative = inhibition” value is inactive: 0.513%.
Regarding `O=C(Nc1cc(F)ccc1F)c1ccc2c(c1)nnn2C1CCCC1`, the result was inactive.
Take `CCc1ccc(CNC(=O)C2CCCN(c3nn4cc(-c5ccc(F)cc5)nc4s3)C2)cc1` (stereo not given): the “activity change, negative = inhibition” value is inactive: -10.1%.
In the case of `CCOC(=O)c1ccccc1NC(=O)N1CCCN(S(=O)(=O)c2ccc3c(ccn3CC)c2)CC1`, the result was inactive.
Take `Cc1cccc(-c2nc(CCNC(=O)c3ccccc3Br)cs2)c1`: the “activity change, negative = inhibition” value was inactive: 13.6%.
Same read-out and setting: next, `COc1ccc(NC(=O)C2CCCN(S(=O)(=O)c3c(C)n[nH]c3C)C2)cc1OC` (stereo not given): inactive: 0.395%; `Cc1ccc(Cc2c(C)nn(-c3nc(C)c(C(=O)N4CCCCC4C)s3)c2C)cc1` (stereo not given): inactive: 13.7%; `COc1ccc(-c2noc(CSc3nnc(-c4ccccc4)n3-c3ccc(F)cc3)n2)c(OC)c1`: inactive: 2.75%.
In the case of `COc1ccc(-c2cc(OC(=O)c3ccc(F)cc3)c3c(C)oc(C)c3c(=O)c2)cc1OC`, the “activity change, negative = inhibition” value is inactive: -6.7%.
`CCC(=O)N1CCc2cc(S(=O)(=O)NC(C(=O)NCCc3ccc(Cl)cc3)C(C)C)ccc21` (stereo not given): the “activity change, negative = inhibition” value is inactive: 3.25%.
For `CCc1nn(CC(=O)NCc2ccc(OC)cc2OC)c(=O)c2cc3c(OC)cccc3n12`, the call was inactive.
